Test [1] concerns the target T1, IKKα, Flag-tagged (human) (UniProt O15111).
T1 sequence: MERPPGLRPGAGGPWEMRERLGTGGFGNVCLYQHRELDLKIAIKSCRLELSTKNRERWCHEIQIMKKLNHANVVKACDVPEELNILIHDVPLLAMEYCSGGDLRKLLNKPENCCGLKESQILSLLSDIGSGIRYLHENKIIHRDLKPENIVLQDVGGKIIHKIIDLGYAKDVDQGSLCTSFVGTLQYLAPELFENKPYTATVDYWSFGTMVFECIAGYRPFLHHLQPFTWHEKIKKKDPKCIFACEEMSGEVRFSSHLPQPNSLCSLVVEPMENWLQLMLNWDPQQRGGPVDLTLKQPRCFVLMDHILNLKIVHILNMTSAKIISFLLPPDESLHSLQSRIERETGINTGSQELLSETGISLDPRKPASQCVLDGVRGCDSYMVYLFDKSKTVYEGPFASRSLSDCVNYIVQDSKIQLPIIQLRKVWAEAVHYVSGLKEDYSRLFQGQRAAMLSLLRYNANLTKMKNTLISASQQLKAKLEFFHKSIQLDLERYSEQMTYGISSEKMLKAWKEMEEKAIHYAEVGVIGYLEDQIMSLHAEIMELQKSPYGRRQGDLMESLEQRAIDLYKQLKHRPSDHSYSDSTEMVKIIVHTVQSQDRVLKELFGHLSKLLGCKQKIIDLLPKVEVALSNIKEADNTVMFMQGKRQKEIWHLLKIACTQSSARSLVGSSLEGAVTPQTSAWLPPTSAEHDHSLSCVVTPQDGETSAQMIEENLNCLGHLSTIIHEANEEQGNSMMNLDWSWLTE
As to the kind of experiment: co-IP; 293T cells co-transfected with Hsp60c constructs (HA tag) and each of the IKK subunit proteins (Flag tag) for 24 hrs.

Test [2] concerns the target T2, IKKβ, Flag-tagged (human) (UniProt O14920).
T2 sequence: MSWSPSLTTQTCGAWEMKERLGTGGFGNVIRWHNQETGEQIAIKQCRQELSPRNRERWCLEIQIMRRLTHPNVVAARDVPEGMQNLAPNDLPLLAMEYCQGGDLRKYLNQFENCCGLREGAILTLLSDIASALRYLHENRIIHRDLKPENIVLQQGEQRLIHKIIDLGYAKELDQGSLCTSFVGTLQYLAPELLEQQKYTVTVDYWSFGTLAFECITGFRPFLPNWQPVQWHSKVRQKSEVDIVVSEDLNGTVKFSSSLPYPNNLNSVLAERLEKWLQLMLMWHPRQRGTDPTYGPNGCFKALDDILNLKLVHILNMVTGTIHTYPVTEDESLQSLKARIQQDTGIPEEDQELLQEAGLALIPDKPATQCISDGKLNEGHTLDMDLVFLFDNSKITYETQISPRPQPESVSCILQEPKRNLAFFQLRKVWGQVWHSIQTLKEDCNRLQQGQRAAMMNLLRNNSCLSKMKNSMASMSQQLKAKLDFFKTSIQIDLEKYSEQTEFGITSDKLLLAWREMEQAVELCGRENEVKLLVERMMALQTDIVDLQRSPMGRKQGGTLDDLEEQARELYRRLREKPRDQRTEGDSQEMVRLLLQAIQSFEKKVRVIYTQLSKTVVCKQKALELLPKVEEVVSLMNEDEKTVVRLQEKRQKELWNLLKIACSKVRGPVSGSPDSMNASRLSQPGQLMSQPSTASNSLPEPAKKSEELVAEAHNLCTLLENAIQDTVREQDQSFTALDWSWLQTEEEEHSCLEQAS
Described as above.

Test [3] concerns the target IKKγ, Flag-tagged (human), Q9Y6K9. The test is described as above. To be noted: remark: other sources report otherwise.
The target in test [4] is glutathione-S-transferase (GST)-fused Hsp60 (human) (UniProt P10809). As to the kind of experiment: pull-down; 1.0 µg GST-Hsp60 pre-bound to glutathione-Sepharose beads incubated with lysates of Sf9 insect cells expressing (His)6-tagged IKKs, 4°C, 2 hrs; washed with lysis buffer A; immunoblot; only the target purified. In general terms: In western blotting, separated proteins are transferred to a membrane and probed.

Results are given in words; binding and its absence hold for the method and conditions named. Binding seen in cells or lysates may run through a third protein. Some results given as binding are weak or reduced against the parent protein; the word gives no strength. Where a sequence is shown, tags or fusion partners need not be part of it.

B1: Hsp60c mutant, K28 substituted with glutamate, HA-tagged (domain or fragment, UniProt P10809 27-573)
chain: AEDVKFGADARALMLQGVDLLADAVAVTMGPKGRTVIIEQSWGSPKVTKDGVTVAKSIDLKDKYKNIGAKLVQDVANNTNEEAGDGTTTATVLARSIAKEGFEKISKGANPVEIRRGVMLAVDAVIAELKKQSKPVTTPEEIAQVATISANGDKEIGNIISDAMKKVGRKGVITVKDGKTLNDELEIIEGMKFDRGYISPYFINTSKGQKCEFQDAYVLLSEKKISSIQSIVPALEIANAHRKPLVIIAEDVDGEALSTLVLNRLKVGLQVVAVKAPGFGDNRKNQLKDMAIATGGAVFGEEGLTLNLEDVQPHDLGKVGEVIVTKDDAMLLKGKGDKAQIEKRIQEIIEQLDVTTSEYEKEKLNERLAKLSDGVAVLKVGGTSDVEVNEKKDRVTDALNATRAAVEEGIVLGGGCALLRCIPALDSLTPANEDQKIGIEIIKRTLKIPAMTIAKNAGVEGSLIVEKIMQSSSEVGYDAMAGDFVNMVEKGIIDPTKVVRTALLDAAGVASLLTTAEVVVTEIPKEEKDPGMGAMGGMGGGMGGGMF
Consider B1, for which the binding entry in test [1] and in test [2] was “binds” throughout.

B2: Hsp60c, cytosol-targeted version of Hsp60 lacking the mitochondrial targeting sequence, HA-tagged, P10809 27-573 (domain or fragment)
chain: AKDVKFGADARALMLQGVDLLADAVAVTMGPKGRTVIIEQSWGSPKVTKDGVTVAKSIDLKDKYKNIGAKLVQDVANNTNEEAGDGTTTATVLARSIAKEGFEKISKGANPVEIRRGVMLAVDAVIAELKKQSKPVTTPEEIAQVATISANGDKEIGNIISDAMKKVGRKGVITVKDGKTLNDELEIIEGMKFDRGYISPYFINTSKGQKCEFQDAYVLLSEKKISSIQSIVPALEIANAHRKPLVIIAEDVDGEALSTLVLNRLKVGLQVVAVKAPGFGDNRKNQLKDMAIATGGAVFGEEGLTLNLEDVQPHDLGKVGEVIVTKDDAMLLKGKGDKAQIEKRIQEIIEQLDVTTSEYEKEKLNERLAKLSDGVAVLKVGGTSDVEVNEKKDRVTDALNATRAAVEEGIVLGGGCALLRCIPALDSLTPANEDQKIGIEIIKRTLKIPAMTIAKNAGVEGSLIVEKIMQSSSEVGYDAMAGDFVNMVEKGIIDPTKVVRTALLDAAGVASLLTTAEVVVTEIPKEEKDPGMGAMGGMGGGMGGGMF
With B2, the binding entry in test [3] is listed as “no binding”.

B3: Hsp60c mutant, D423 substituted with alanine, HA-tagged (domain or fragment, UniProt P10809 27-573)
chain: AKDVKFGADARALMLQGVDLLADAVAVTMGPKGRTVIIEQSWGSPKVTKDGVTVAKSIDLKDKYKNIGAKLVQDVANNTNEEAGDGTTTATVLARSIAKEGFEKISKGANPVEIRRGVMLAVDAVIAELKKQSKPVTTPEEIAQVATISANGDKEIGNIISDAMKKVGRKGVITVKDGKTLNDELEIIEGMKFDRGYISPYFINTSKGQKCEFQDAYVLLSEKKISSIQSIVPALEIANAHRKPLVIIAEDVDGEALSTLVLNRLKVGLQVVAVKAPGFGDNRKNQLKDMAIATGGAVFGEEGLTLNLEDVQPHDLGKVGEVIVTKDDAMLLKGKGDKAQIEKRIQEIIEQLDVTTSEYEKEKLNERLAKLSDGVAVLKVGGTSDVEVNEKKDRVTAALNATRAAVEEGIVLGGGCALLRCIPALDSLTPANEDQKIGIEIIKRTLKIPAMTIAKNAGVEGSLIVEKIMQSSSEVGYDAMAGDFVNMVEKGIIDPTKVVRTALLDAAGVASLLTTAEVVVTEIPKEEKDPGMGAMGGMGGGMGGGMF
Turning to B3, the binding result in test [1] and in test [2] was “binds” in each case.

B4: (His)6-tagged IKKβ (protein, UniProt O14920 1-756)
chain: MSWSPSLTTQTCGAWEMKERLGTGGFGNVIRWHNQETGEQIAIKQCRQELSPRNRERWCLEIQIMRRLTHPNVVAARDVPEGMQNLAPNDLPLLAMEYCQGGDLRKYLNQFENCCGLREGAILTLLSDIASALRYLHENRIIHRDLKPENIVLQQGEQRLIHKIIDLGYAKELDQGSLCTSFVGTLQYLAPELLEQQKYTVTVDYWSFGTLAFECITGFRPFLPNWQPVQWHSKVRQKSEVDIVVSEDLNGTVKFSSSLPYPNNLNSVLAERLEKWLQLMLMWHPRQRGTDPTYGPNGCFKALDDILNLKLVHILNMVTGTIHTYPVTEDESLQSLKARIQQDTGIPEEDQELLQEAGLALIPDKPATQCISDGKLNEGHTLDMDLVFLFDNSKITYETQISPRPQPESVSCILQEPKRNLAFFQLRKVWGQVWHSIQTLKEDCNRLQQGQRAAMMNLLRNNSCLSKMKNSMASMSQQLKAKLDFFKTSIQIDLEKYSEQTEFGITSDKLLLAWREMEQAVELCGRENEVKLLVERMMALQTDIVDLQRSPMGRKQGGTLDDLEEQARELYRRLREKPRDQRTEGDSQEMVRLLLQAIQSFEKKVRVIYTQLSKTVVCKQKALELLPKVEEVVSLMNEDEKTVVRLQEKRQKELWNLLKIACSKVRGPVSGSPDSMNASRLSQPGQLMSQPSTASNSLPEPAKKSEELVAEAHNLCTLLENAIQDTVREQDQSFTALDWSWLQTEEEEHSCLEQAS
Turning to B4, the binding entry in test [4] is reported as “binds”.
